Target: T1, p/CIP (UniProt O09000 1-1398, limits assumed)
T1 construct: In vitro translated, 35S-labeled; expressed in cells in the reporter assay; also called p/CIP/ACTR/AIB1
Assay: GST pull-down, in vitro translated 35S-labeled coactivator
Protocol: To further characterize the interaction of STAT6 and NCoA-1 and to determine the specificity, GST-pull-down experiments are performed. The three related members of the NCoA/SRC-1 family are tested for interaction with the STAT6 TAD. Therefore the transactivation domain of STAT6 is fused to GST and equal amounts of GST and GST-STAT6-TAD are incubated with in vitro synthesized, [³⁵S]-labeled coactivators. NCoA-1 strongly binds to GST-STAT6 TAD (FIG. 4, lane 7). In contrast, NCoA-2 and p/CIP fail to interact with STAT6 TAD (lane 8, 9). No binding is observed with GST alone (lane 4, 5, 6). These findings are consistent with the transient transfection experiments shown in FIG. 1, where NCoA-1, but not NCoA-2 and p/CIP enhances transactivation by STAT6. Taken together, NCoA-1 specifically interacts with STAT6 and serves as a coactivator for STAT6.

| Binder | binding result |
| --- | --- |
| GST-STAT6 […] (other, also called GST-STAT6 ([…]); GST-STAT6 TAD) [sequence of about 200 residues not given]SDLIEGRGIPEFDSSMSMQLGPDMVPQVYPPHSHSIPPYQGLSPEESVNVLSAFQEPHLQMPPSLGQMSLPFDQPHPQGLLPCQPQEHAVSSPDPLLCSDVTMVEDSCLSQPVTAFPQGTWIGEDIFPPLLPPTEQDLTKLLLEGQGESGGGSLGAQPLLQPSHYGQSGISMSHMDLRANPSW | no binding |
| GST (Glutathion S Transferase) alone (enzyme, Control protein of the pull-downs, purified from E. coli) not shown | no binding |
